# From PubChem BioAssay AID1030 (National Center for Advancing Translational Sciences (NCATS), 2008)
# The whole screen tested about 220,000 compounds, of which about 16,000 (7.3%) were called active. This list was built around the results that the source calls inconclusive (neither active nor inactive); the mix of calls is not that of the screen. Calls follow the shape of the dose curve; as a rule, active = well fitted inhibition curve with a large enough effect (not every such curve was filed as active); inconclusive = small, poorly fitted or top-dose-only effect, or another doubt; inactive = no such curve, though single readings can be large or run the other way. Potencies of inconclusive entries are left out as doubtful fits.
# Molecular target: Aldehyde dehydrogenase 1A1 (Homo sapiens) (UniProt P00352)
# Assay: qHTS Assay for Inhibitors of Aldehyde Dehydrogenase 1 (ALDH1A1)
# Details: Purified ALDH1A1, NADH fluorescence, propionaldehyde substrate; series mostly up to 75.3 µM
# Potency is read from the fitted curve at half-maximal effect; tags tell the direction and shape of the fitted curve.
# UniProt P00352, sequence (P00352 whole entry, looked up): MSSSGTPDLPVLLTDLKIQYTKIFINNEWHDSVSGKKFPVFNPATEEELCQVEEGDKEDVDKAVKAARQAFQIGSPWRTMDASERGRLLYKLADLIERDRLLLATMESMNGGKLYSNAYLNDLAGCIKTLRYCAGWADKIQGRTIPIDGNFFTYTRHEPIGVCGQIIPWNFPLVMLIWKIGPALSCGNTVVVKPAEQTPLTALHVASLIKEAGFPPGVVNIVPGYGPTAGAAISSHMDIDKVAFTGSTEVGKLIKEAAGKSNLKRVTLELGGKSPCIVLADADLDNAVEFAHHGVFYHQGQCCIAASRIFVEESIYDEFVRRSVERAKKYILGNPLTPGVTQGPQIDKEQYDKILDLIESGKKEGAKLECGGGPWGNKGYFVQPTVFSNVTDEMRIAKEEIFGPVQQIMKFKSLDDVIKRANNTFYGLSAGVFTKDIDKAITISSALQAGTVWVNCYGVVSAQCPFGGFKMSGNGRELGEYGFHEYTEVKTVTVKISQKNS
row,SMILES,Potency
1,COC(=O)c1c(NC(=O)c2ccccc2N(C)S(=O)(=O)c2ccccc2)sc2c1CCCC2,"inconclusive [inhibitor, single point]"
2,CCO[C@@H]1OC(C(=O)N2CCN(Cc3ccc4c(c3)OCO4)CC2)=C[C@H](C2CC2)[C@H]1CCCO,inactive
3,Cc1ccc(-c2nn3cnnc3c3ccccc23)cc1C,"inconclusive [inhibitor, partial curve]"
4,C[C@@H]1Oc2ccccc2C=C1/C=C/C(=O)O,"inconclusive [inhibitor, partial curve]"
5,CCCC1O[C@@H]2CC3C4CCC5=CC(=O)C=C[C@]5(C)C4C(OC(C)=O)C[C@]3(C)[C@]2(C(=O)COC(C)=O)O1 (some centres not stated),"inconclusive [inhibitor, single point]"
6,Cc1ccc(S(=O)(=O)N2CN(Cc3ccco3)c3nc4ccccc4nc32)cc1C,"inconclusive [inhibitor, single point]"
7,CCCC(C)C(=O)Nc1ccc(S(=O)(=O)Nc2nccc(C)n2)cc1 (configuration not stated),inactive
8,N#CCc1ccc(NS(=O)(=O)c2ccc(N3CCCC3=O)cc2)cc1,active: 14.1 µM
9,O=C(CCc1nc2ccccc2c(=O)[nH]1)OCC(=O)c1cccc(Cl)c1,"inconclusive [inhibitor, single point]"
10,NC(=O)CSC1=Nc2ccccc2C2=NC(CC(=O)NCc3cccs3)C(=O)N12 (configuration not stated),"inconclusive [inhibitor, single point]"
11,CCCOc1ccc(N2C(=O)CC(N3CCC(c4nncn4CC)CC3)C2=O)cc1 (configuration not stated),"inconclusive [inhibitor, single point]"
12,CCOc1ccc(NCc2nnc(SCc3ccccc3Cl)n2-c2ccccc2)cc1,active: 12.6 µM
13,O=C(NCCCn1ccnc1)c1cc2cc([N+](=O)[O-])ccc2oc1=O,"inconclusive [inhibitor, partial curve]"
14,COCCn1c(=O)c(-c2cccc(F)c2)nc2cncnc21,"inconclusive [inhibitor, single point]"
15,CN(C)S(=O)(=O)Oc1ccc(C(=O)Nc2cccc(Cl)c2)cc1,"inconclusive [inhibitor, single point]"
16,O=C(CSc1nnc(-c2ccccc2)o1)c1ccc2c(c1)OCCO2,active: 3.16 µM
17,O=C(CCl)NCCNC(=O)c1cc(OCC(F)(F)F)ccc1OCC(F)(F)F,"inconclusive [inhibitor, single point]"
18,O=[N+]([O-])c1ccc(NNC(=S)Nc2ccc(F)cc2)cc1,active: 1.26 µM
19,Cc1ccccc1C1NC(=O)Cc2ccccc21 (configuration not stated),inactive
20,CC(=O)Nc1ccc2nc(CN3CCN(CC=C(C)C)C(CCO)C3)ccc2c1 (configuration not stated),"inconclusive [inhibitor, partial curve]"
21,CC1CCCN(CCOCCSc2ccccc2)C1 (configuration not stated),inactive
22,CCOc1ccccc1NS(=O)(=O)c1cccc2nsnc12,"inconclusive [inhibitor, single point]"
23,CCC(C)C(NC(=O)OC(C)(C)C)C(=O)NC(C)C(N)=O (configuration not stated),inactive
24,COc1cc(OC)cc(C(=O)N/N=C/c2ccc(OC)c(COc3ccc(F)cc3)c2)c1,"inconclusive [inhibitor, single point]"

row,SMILES,Potency
1,COC(=O)c1cc(Cl)c(NC(=O)c2cc3ccccc3o2)cc1OC,inactive
2,Cc1cccc(NC(=S)N2CCOCC2)c1C,inactive
3,Fc1ccccc1CSc1nnc(-c2cccnc2)o1,inactive
4,COc1cccc(C2CC(c3ccccc3)=NN2S(=O)(=O)c2ccc(C)cc2)c1OC (configuration not stated),"inconclusive [inhibitor, partial curve]"
5,Cc1ccc(-c2nnn(CC(=O)N3CCCCC3)n2)o1,inactive
6,O=C(N/N=C1\CC(c2ccccc2)Oc2ccccc21)c1cccnc1 (configuration not stated),"inconclusive [inhibitor, single point]"
7,Cc1ccc(NC(=O)C(=O)NCCN2CCN(S(C)(=O)=O)CC2)cc1C,"inconclusive [inhibitor, partial curve]"
8,COC(=O)c1cc2nc(-c3ccccc3)cc(C(F)(F)F)n2n1,"inconclusive [inhibitor, single point]"
9,COCCCNC(=O)c1ccc2c(c1)OCO2,inactive
10,CN(C(=O)c1ccc(C#N)cc1)c1nnc(-c2ccccn2)s1,"inconclusive [inhibitor, single point]"
11,COc1ccc2sc3ccccc3c(=O)c2c1,"inconclusive [inhibitor, single point]"
12,COc1cc2cc(CN(Cc3cccnc3)C(=O)NCc3ccccc3)c(=O)[nH]c2cc1OC,"inconclusive [inhibitor, partial curve]"
13,c1ccc(-c2cccc(N3CCCC4(CCNCC4)C3)c2)cc1,"inconclusive [inhibitor, single point]"
14,CCn1c(O)c(N=NC2=NC(=O)CS2)c2cc(C)ccc21,active: 14.1 µM
15,COc1ccc(OC)c(NC(=O)CSc2nnc(CNC(=O)COc3ccc(Cl)cc3)o2)c1,active: 20 µM
16,COc1ccc(OCCOC(=O)c2ccc(-n3cnnn3)cc2)cc1,"inconclusive [inhibitor, partial curve]"
17,Oc1ccc(Br)cc1-c1ccn[nH]1,inactive
18,CCN(CC)C(=S)NC(=O)C12CC3CC(CC(C3)C1)C2,"inconclusive [inhibitor, single point]"
19,O=C(Nc1ccon1)c1cc2ccccc2oc1=O,"inconclusive [inhibitor, partial curve]"
20,Cc1ccc(N(C(=O)Cc2cccs2)C(C(=O)NCC2CCCO2)c2ccncc2)cc1 (configuration not stated),inactive
21,OCCC1CN(Cc2cccc(-c3ccco3)c2)CCN1Cc1ccsc1 (configuration not stated),"inconclusive [inhibitor, single point]"
22,O=C(c1cccn2c(=O)c3cc4ccccc4cc3nc12)N1CCN(c2ccccc2)CC1,"inconclusive [inhibitor, single point]"
23,Cc1ccc(C(C)n2cc(C(=O)NCc3cccnc3)nn2)cc1 (configuration not stated),active: 11.2 µM
